# Source: the supplement of paper PMC3334620
# In all, about 33,000 sequences were measured (“E-score (-0.5 to 0.5)”: median about -0.016, highest 2% from about 0.31 on). The list shows a part of the results.
# Target: Cst6 (UniProt P40535)
# Assay: PBM E-score (8-mer binding enrichment) (E-score (-0.5 to 0.5)); higher = stronger / more preferred TF binding; most listed sequences are background and not binding sites
# Conditions: protein concentration: 200 nM; construct: GST-DNA-binding domain
# Procedure, shortened: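 For each ungapped eight-base word taken together with its reverse complement, the Universal PBM Analysis Suite assigned an E-score. Binding data came from GST-tagged yeast transcription factors, applied at about 100-200 nM, on universal all-10-mer Agilent arrays made double-stranded by primer extension. Fluorescent anti-GST marked bound protein, and scans were normalised with masliner.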
row,Sequence,PBM E-score
1,CCTTAGCG,-0.2
2,AAGGTCTA,-0.162
3,AATCGCAT,0.0108
4,ATTGAAGC,-0.0635
5,CCAACACA,0.0605
6,TATTTGAA,0.132
7,ACTCATAC,0.193
8,CTTAGACA,-0.0357
9,CCGCTGAA,-0.0652
10,CCTGCTCA,-0.211
11,ACTACGAG,-0.0759
12,GCCTTGAC,-0.0781
13,AAAAAGGT,0.14
14,AAGTAACA,0.177
15,AACGCGAA,0.0569
16,GTCGAGTA,-0.0624
17,GTTAGACA,0.176
18,ACGCCGCC,0.124
19,AGTGAGTA,0.245
20,CACTTTTA,0.127
21,AATGCGTG,0.0591
22,AATCCGGA,0.0186
23,CGCCTCAA,-0.0366
24,CGTGTGTA,0.0401
25,ATAACTAT,0.0985

row,Sequence,PBM E-score
1,GGCATGAC,0.245
2,TACTAATA,0.222
3,GCGCGCAC,0.178
4,CGGTGACG,0.476
5,CTCATCTC,0.144
6,AGCGTACG,-0.092
7,AGGGTCAT,-0.0579
8,AACGTCGT,0.0196
9,GTGTAGTA,-0.0865
10,CTGGCTGA,-0.14
11,ACCTTAGC,-0.049
12,CCGTAAGA,-0.0536
13,CTAGAACA,-0.0144
14,AACCCCGA,-0.224
15,TGAGCGAA,0.155
16,GGGCCCCC,-0.464
17,TGGTCCAA,-0.123
18,CTAGGGAG,-0.232
19,AGGTAGGA,-0.158
20,GACCTAAA,0.174
21,GAAAGCAA,0.131
22,ACACGATA,0.0602
23,GAGAGCTC,-0.287
24,AGATCCAG,-0.182
25,ATCAGTTC,-0.0191

row,Sequence,PBM E-score
1,AATCGCGT,0.0992
2,CTCCACTA,-0.123
3,AGTTGGAA,0.0986
4,AATCGGTA,-0.0316
5,TCACCTAA,0.203
6,GAATGTGA,0.064
7,CATTCGCA,-0.0508
8,CCCACCAA,-0.0615
9,AAGGCCCT,-0.128
10,CTCAAAGC,-0.0428
11,AGTCGCAA,0.0563
12,ATTAATAG,0.281
13,ATAGGGGC,-0.222
14,CCGTGAGC,-0.0801
15,ACCGTTCC,0.0197
16,AGAGACGA,-0.061
17,GCAGTGGC,0.0207
18,CACCAGTA,-0.106
19,AAACGTCG,0.0736
20,AATTATGT,0.304
21,GAACTGGC,-0.112
22,CCGAATCG,0.0572
23,AGACCACA,-0.204
24,AGAAGAGC,0.0175
25,ACTACGCG,0.0281

row,Sequence,PBM E-score
1,CCCGTCCC,-0.357
2,CGAGCATA,-0.0618
3,GTAACTGA,0.152
4,CAAGGCTC,-0.227
5,AAGTGCCA,0.0331
6,GTTGTGGA,-0.0234
7,CGAAAAAC,0.151
8,GGATGCAA,-0.129
9,AAACTGGA,-0.134
10,CATTACAA,0.225
11,TCAACCGA,0.178
12,CAGTATGG,-0.15
13,CGATCGTC,0.146
14,CCACAGTC,-0.348
15,CAGCGTAA,0.102
16,AAACATAT,0.209
17,ACACTCGG,-0.0878
18,GCTGGGAC,-0.203
19,ATACACTG,0.0899
20,GACATACC,0.121
21,GCACCCTA,-0.131
22,AATCCGTA,-0.0522
23,AATCTTTC,0.0764
24,GTATGAAC,-0.00346
25,AATCACTG,0.214

row,Sequence,PBM E-score
1,GGTTATAC,-0.0248
2,CACGTCTA,-0.0114
3,CGGTGCGC,-0.144
4,CACTGCTC,-0.0159
5,AAGACACT,0.0684
6,AGGTCTGG,-0.155
7,ATATACCC,-0.00756
8,CGCGAGCG,-0.112
9,ATGAGAAT,0.137
10,CTATACAG,-0.0654
11,CGCACGAG,0.00379
12,AGTTCTTA,0.0169
13,AGGCATCA,0.0426
14,CGAAGAGA,-0.0371
15,ACGCCCAG,-0.176
16,CCGCACCC,-0.0355
17,CGCCGACC,-0.336
18,TCAGATAA,0.174
19,AACAGTCC,-0.289
20,AGATCGCA,-0.00761
21,AGGAAGCG,0.00262
22,ACGGACCT,-0.11
23,GGCGGGCA,-0.0394
24,AGAAGGTG,-0.0205
25,AGTAGGAG,-0.237

row,Sequence,PBM E-score
1,GGGGTAAA,0.0414
2,AGAAAGCT,0.0476
3,CCGCTAGA,-0.37
4,GGGACTGA,-0.222
5,CTGGATGA,0.0796
6,CCTGCATC,-0.109
7,AATGCCAG,-0.183
8,ACGATACT,-0.0933
9,ATGCGTAG,-0.061
10,CGGCGAGA,0.00749
11,ATGCCACC,-0.15
12,CTACATAC,0.055
13,ATTATAGC,-0.0389
14,CAGTGGAC,-0.111
15,ATGCCTCA,0.11
16,CGGAGCAG,-0.15
17,GCTGGCGA,-0.187
18,TAGTCGAA,0.0626
19,AGTACGAA,0.195
20,CGCCAGCA,-0.0789
21,TATATGCA,0.0368
22,GTAGTAGA,0.143
23,CAACAACA,0.259
24,ATAGTTAC,0.182
25,ACAGGTCG,-0.144

row,Sequence,PBM E-score
1,AACCAACC,-0.208
2,AATTGTGG,-0.0373
3,ATTAATCG,0.172
4,GGCTCTGA,0.0905
5,GTGGGGCA,-0.106
6,ATCACTTA,0.194
7,CTGTAGGC,-0.195
8,TCTCATCA,0.181
9,CACGTTAC,0.143
10,CTTACTTA,0.0601
11,CTACACTA,-0.00094
12,GGTGTAAA,-0.166
13,GGTTTCTA,0.115
14,CTGTGTTA,0.00958
15,ATTATCCA,0.0715
16,GATTTAAC,0.0628
17,CTACGGCA,0.283
18,GTCGTTCA,0.0498
19,CCGGCCAA,-0.232
20,AACAAAAT,0.24
21,CAGGCTCC,-0.274
22,AATGAACG,0.148
23,AATACGAG,0.0303
24,AACCTACC,-0.164
25,AACCATCC,-0.0939

row,Sequence,PBM E-score
1,ACTAAGTC,-0.155
2,CCCGGCCC,-0.394
3,TATAAAGA,0.127
4,ACTATCGC,-0.0879
5,CTTCTTAC,-0.0252
6,AAAGCTGT,0.102
7,GCCAATAA,0.0966
8,CAGCCCAC,-0.191
9,ACTCTCGA,-0.102
10,AGCTAGGG,-0.23
11,ACAGTCCG,-0.197
12,CGTATTAA,0.112
13,ACCCTATG,-0.243
14,GCGGGGCC,-0.122
15,ATTGGGCC,0.111
16,CCCAGCGG,-0.194
17,CGGCATTA,0.3
18,GCATGGCC,-0.164
19,GCCTTCCC,-0.138
20,TCGTACGA,0.146
21,ATATAATC,0.231
22,AACCACGG,-0.066
23,CTGGGGGA,-0.311
24,CAATGGGG,-0.0393
25,CATAGTTC,0.0666

row,Sequence,PBM E-score
1,CGAACACC,-0.134
2,AGGAGGAC,-0.316
3,CCGCTCTA,-0.0361
4,CAGGCTTA,-0.147
5,TCCGTAGA,-0.109
6,TAAACCTA,0.0665
7,AGGTCACT,-0.0496
8,ACGGTAGG,-0.0442
9,AGCGAACC,-0.16
10,CTGGGTAC,-0.146
11,AGTGGAAC,-0.194
12,ACCAGTAC,-0.0199
13,ACTAGGCT,-0.0951
14,CACGCACC,-0.00414
15,AGGCTAGA,-0.259
16,CCTTCTAG,-0.0748
17,CTGTCTGC,-0.171
18,CTCAACCA,-0.00932
19,CGACCCCA,-0.0987
